PMC4336329 (PLoS ONE, 2015)
The whole screen tested about 310,000 compounds, of which about 14,000 (4.5%) showed an effect of 50% or more. Effects have a minus sign here. This is one part of the list.

What follows are compounds tested against human ether-à-go-go-related gene (hERG) potassium channel (human, UniProt Q12809) (assay: primary screen, population patch clamp on CHO cells stably expressing hERG).
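Also: peak tail current of the secondary pulse compared with the same well before compound.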

human ether-à-go-go-related gene (hERG) potassium channel, sequence (Q12809 whole entry, looked up): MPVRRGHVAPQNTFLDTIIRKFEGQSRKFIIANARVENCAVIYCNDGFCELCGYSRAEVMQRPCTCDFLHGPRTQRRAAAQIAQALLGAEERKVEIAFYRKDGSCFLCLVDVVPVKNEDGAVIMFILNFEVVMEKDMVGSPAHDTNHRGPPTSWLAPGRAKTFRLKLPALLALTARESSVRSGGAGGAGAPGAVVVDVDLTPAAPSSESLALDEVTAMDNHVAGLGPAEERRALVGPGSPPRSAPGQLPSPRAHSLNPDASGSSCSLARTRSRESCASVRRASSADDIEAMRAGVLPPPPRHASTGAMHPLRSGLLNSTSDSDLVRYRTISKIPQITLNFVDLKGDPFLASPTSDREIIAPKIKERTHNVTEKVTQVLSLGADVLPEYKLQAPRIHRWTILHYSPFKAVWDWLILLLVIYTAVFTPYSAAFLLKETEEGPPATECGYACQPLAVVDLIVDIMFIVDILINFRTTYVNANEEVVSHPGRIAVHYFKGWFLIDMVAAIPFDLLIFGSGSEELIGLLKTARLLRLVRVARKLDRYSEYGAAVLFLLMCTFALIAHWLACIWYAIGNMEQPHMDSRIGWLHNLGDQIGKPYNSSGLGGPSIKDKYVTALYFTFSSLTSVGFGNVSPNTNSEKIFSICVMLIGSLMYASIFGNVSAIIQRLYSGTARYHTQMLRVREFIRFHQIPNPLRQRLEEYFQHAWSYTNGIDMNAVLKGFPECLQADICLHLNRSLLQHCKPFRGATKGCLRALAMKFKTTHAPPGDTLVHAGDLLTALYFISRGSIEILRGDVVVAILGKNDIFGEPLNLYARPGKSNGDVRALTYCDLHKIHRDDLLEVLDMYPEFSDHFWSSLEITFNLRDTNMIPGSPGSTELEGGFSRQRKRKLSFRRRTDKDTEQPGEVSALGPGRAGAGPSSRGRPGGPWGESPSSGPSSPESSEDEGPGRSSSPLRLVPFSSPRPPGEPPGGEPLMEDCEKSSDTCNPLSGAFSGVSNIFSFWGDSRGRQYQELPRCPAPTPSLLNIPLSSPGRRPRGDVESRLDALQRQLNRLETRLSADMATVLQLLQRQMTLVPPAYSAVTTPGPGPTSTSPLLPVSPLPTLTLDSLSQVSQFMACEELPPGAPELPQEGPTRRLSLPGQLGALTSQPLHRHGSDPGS

Compound	hERG current change (%, negative = inhibition) at 10uM [%]
Cc1nnc(SCC2=C(C(=O)O)N3C(=O)C(NC(=O)Cn4nc(C(F)F)c(Cl)c4C)C3SC2)s1 (stereo not shown)	2.67
Cc1ccccc1-n1c(-c2ccc3ccccc3n2)n[nH]c1=S	22.2
CCc1ccc2nc(N(CCN(C)C)C(=O)c3ccc4ccccc4c3)sc2c1.Cl	0.369
C=CCN1CC(C(=O)N2CCC(Cc3ccc(Cl)cc3)(C(=O)OCC)CC2)CC1=O (stereo not shown)	-72.4
O=C(COC(=O)c1ccccn1)Nc1cccc2ccccc12	16.4
COC(=O)c1ccccc1NC(=O)CNc1cc(OC)c(OC)cc1C	-20.8
CC(=Nc1ccccc1)C1=C(O)CCCC1=O	6.23
N=c1oc2ccccc2cc1-c1nc(-c2ccc(Cl)cc2)cs1	10.1
Cc1c(C)c2ccc(OC(C)C(=O)NCCCn3ccnc3)c(C)c2oc1=O (stereo not shown)	-6.05
CCOc1ccc(-n2nc3ccc(N)cc3n2)cc1	16.1
Cc1ccc(C2=Nc3ccccc3NC(C)(c3ccc(C)o3)C2)o1 (stereo not shown)	-2.12
COc1ccc(C2NN=C(c3ccc(C)cc3)S2)cc1 (stereo not shown)	4.2
CCNC(=S)NNC(=O)c1c(Cl)c(C)nn1C	17.1
CCOC(=O)c1c(C2CCN(C(=O)OCC)CC2)nc2ccccn12	-47.1
Cc1ccc(S(=O)(=O)Nc2ccc(N=Nc3ccc(O)cc3)cc2)cc1	24.1
Oc1ccccc1-c1n[nH]c(=S)n1Cc1ccco1	15.8
CN(C)S(=O)(=O)c1ccc(N2CCCC2)c(C(=O)NC2(C)CCS(=O)(=O)C2)c1 (stereo not shown)	9.41
Clc1ccc(Nc2nc(C3CC3)cs2)cc1	13.5
COc1ccc(-c2ccc(NS(=O)(=O)c3cc([N+](=O)[O-])c(C)c([N+](=O)[O-])c3)cc2)nn1	-11.3
CCN(CC)CC(=O)Nc1ccc(C)cc1C(=O)c1ccccc1	-19.5
Cc1cc(C)cc(C(=O)N(CCc2ccccc2)C2CC3CCC(C2)N3C)c1.Cl (stereo not shown)	-56.5
CN(C)S(=O)(=O)c1cc(C(=O)NCCCn2ccc3ccccc32)ccc1Cl	-18.7

Compound	hERG current change (%, negative = inhibition) at 10uM [%]
O=C(COc1cccc2cccnc12)Nc1nccs1	-13.5
NS(=O)(=O)c1ccc(CCNC(=O)CSc2ccc([N+](=O)[O-])cc2)cc1	-37.8
CCOc1ccc(CNC(=O)c2ccc3c(c2)N(CC)CCS3)cc1	8.06
CC1CCc2c(sc(Nc3nc4c(F)cccc4s3)c2C(N)=O)C1 (stereo not shown)	38.3
C=CCNC(=O)c1onc(CSc2ccccc2F)c1C(=O)O	30.9
CCN(CC)C(=O)c1sc(NC(=O)c2cccs2)c(C#N)c1C	19.9
O=C(COC(=O)C1CC1)Nc1ccc(N=Nc2ccccc2)cc1	12.5
COc1ccc(N(C(=O)C2COc3ccccc3O2)C(C(=O)NC2CCCCC2)c2ccccc2)cc1OC (stereo not shown)	-3.29
CCCN(CC(=O)Nc1ccccc1C)C(=O)c1ccc(NC2CC2)c([N+](=O)[O-])c1	10.5
CCOC(=O)C1=C(CC)Nc2ccccc2N=C1NC(=O)c1ccc(OC)c(S(=O)(=O)N2CCCCC2C)c1 (stereo not shown)	-9.14
Cc1cc(C(=O)OCC(=O)Nc2cccc(S(N)(=O)=O)c2)c2ccccc2n1	-4.62
O=C(CCCn1cc([N+](=O)[O-])cn1)Nc1ccc2c(c1)OCO2	4.52
CC(C)(C)NC(=O)CN(C(=O)CCC(=O)Nc1nccs1)c1ccc(F)cc1	12.6
CN1CCC(N(C)c2ccc(C(N)=O)cc2[N+](=O)[O-])CC1	5.32
COC(=O)CSc1[nH]c2ccccc2c1[N+](=O)[O-]	7.33
CN(c1ccc(C(=O)N2CCN(Cc3ccccc3)CC2)cc1)S(=O)(=O)c1ccccc1	-36.4
COc1ccc(N2C(=O)c3ccccc3C(C)(C)C2=O)cc1	-0.639
Cc1nc(-c2noc(-c3cccc(Cl)c3)n2)c(C(F)(F)F)o1	5.66
Cc1ccc(-n2c(C)cc(C(=O)CSc3nncs3)c2C)cc1	-4.27
CCOC(=O)c1c(C)c(C(=O)Nc2ccc3c(c2)OCCO3)c(C)n1C	-1.09
Cc1ccc(C(C(=O)NC2CCCC2)N(Cc2ccc(F)cc2)C(=O)c2csnn2)o1 (stereo not shown)	-2.84
c1ccc2c(NCC3CCCO3)nc(-c3ccncc3)nc2c1 (stereo not shown)	-14.6

Compound	hERG current change (%, negative = inhibition) at 10uM [%]
CCOP(=O)(OCC)c1ccccc1OCP(C)(=O)COc1ccccc1P(=O)(OCC)OCC	19.4
Cc1ccccc1NC(=O)Cc1nc(COC(=O)CCOc2ccccc2)cs1	16.2
Cc1cc(C)c(S(=O)(=O)N2CCN(C(=O)C(C)Cn3cncn3)CC2)c(C)c1 (stereo not shown)	-1.37
CN1CCN(Cc2ccccc2Sc2ccccc2)CC1.O=C(O)/C=C\C(=O)O	-82
Cc1ccc(-c2cc(C(=O)NCc3ccco3)c3ccccc3n2)o1	-9.18
COc1ccc(-c2noc(CN(C)C(=O)c3ccco3)n2)cc1	2.58
O=C1c2cccnc2C(O)N1Cc1ccc(F)cc1 (stereo not shown)	0.629
Cc1nnsc1-c1c(C(=O)Oc2ccccc2)c(C)nn1-c1ccccc1	2.16
O=C(NNC(=O)c1ccco1)c1csc(N2CCOCC2)n1	16.7
O=C(CSc1n[nH]c(=O)n1-c1ccc2c(c1)OCCO2)Nc1ccccc1	13
Cc1ccc2nc(SC(C(=O)Nc3ccc(F)cc3)c3ccccc3)[nH]c2c1 (stereo not shown)	-1.38
O=C(Nc1nc2c(s1)CCCC2)c1ccc2ncsc2c1	9.54
CCn1c(SCC(=O)NC2CCCC2)nnc1-c1ccncc1	16.4
CN(Cc1ccccc1)C(=O)CCC1CCN(C(=O)CCC(F)(F)F)CC1	-4.45
CCOC(=O)CCn1nnc(N)n1	16.5
O=C(Nc1ccc(-c2cscn2)cc1)C1CCCN(Cc2ccccc2)C1 (stereo not shown)	-32.1
CCOC(=O)CSc1nc2c(c(=O)n1-c1ccc(OCC)cc1)SCC2	12.6
Cc1c(Cl)ccc2c1NC(=O)[C@]21N[C@@H](Cc2ccccc2)[C@H]2C(=O)N(c3ccc(F)cc3)C(=O)[C@H]21	15.9
O=C1/C(=C/c2cccs2)SC(=S)N1N1CCOCC1	5.26
O=C(CS(=O)(=O)c1ccc(Cl)cc1)Nc1nnc(-c2cccs2)o1	28.5
Cc1cccc(C)c1NC(=O)c1cnn(-c2ccccc2)c1C	6.6
COc1ccc(C(=O)Nc2ccc(N3CCOCC3)cc2)cc1S(=O)(=O)NC1CCCC1	13.1

Compound	hERG current change (%, negative = inhibition) at 10uM [%]
N#Cc1ccc(CSc2nnc(-c3cccs3)n2-c2ccccc2)cc1	-72.7
Cc1noc(C)c1COc1ccc(C(=O)OCC(=O)Nc2ccc(S(N)(=O)=O)cc2)cc1	-6.61
CCn1nc(C)c(/C=C2\CCCC3=C2OC(N)=C(C#N)C3c2c(C)nn(CC)c2C)c1C (stereo not shown)	10.1
Cc1ccc(S(=O)(=O)NCc2ccccc2)cc1C(=O)N1CC(C)CC(C)C1 (stereo not shown)	-41.7
CC(=O)Nc1ccc(Oc2cc(N)cc([N+](=O)[O-])c2)cc1	15.7
O=C(Cc1ccc(Cl)cc1)Nc1ccccc1Sc1ccccc1	11.5
CCCCCCCNC(=O)C1(CC2CC(c3cccc(Br)c3)=NO2)CCN(C(=O)CCCCCBr)CC1 (stereo not shown)	-82.7
COc1ccc(N2CCN(C(=O)COC(=O)CCOc3ccccc3C)CC2)cc1	-62.5
COc1ccc(S(=O)(=O)N2CCOC2CNC(=O)C(=O)NCCCN2CCOCC2)cc1C (stereo not shown)	-0.982
COc1cc(CCC(=O)OCC(=O)Nc2ccccc2C#N)cc(OC)c1OC	9.45
CCOC(=O)N1CCC(Nc2nc3ccccc3n3cnnc23)CC1	-4.52
Cc1ccc(CNC(=O)C2=NNC(=O)CC2)cc1	-8.66
O=C(Cc1ccc(S(=O)(=O)N2CCOCC2)s1)Nc1cc(C(F)(F)F)cc(C(F)(F)F)c1	19.4
C#CCOCCOCCOCCNc1nc(N2CCN(C(=O)CCCCCCCCCCNC(=O)Cn3cc(CCCCCN)nn3)CC2)nc(N2CCN(C(=O)CCCCCCCCCCNC(=O)Cn3cc(C[C@@H](C)O)nn3)CC2)n1	11.2
COc1ccc(NC(=O)CN(c2ccc(Cl)cc2)S(C)(=O)=O)cc1OC	11.2
CCn1c(NC(=O)Nc2ccccc2OC)nc2ccccc21	-17.8
CC1(C)CC(NC(=O)COc2ccc(Br)cc2Cl)CC(C)(C)N1	-14.8
CC(=O)N1N=C(c2ccc(Cl)cc2)OC1(C)C	-0.24
Cc1ccc2[nH]c3c(c2c1)CCN1C(=O)OC(C)(C)C31C (stereo not shown)	22.3
